A compilation of properties of binary mixtures (doi:10.1016/j.molliq.2016.09.008)
The densities may have been worked out from excess volumes.

Test: xn = mol fraction of the nth substance listed
Conditions: 298.15 K, 101 kPa

SMILES | mass density (x1 = 1) | mass density (x1 = 0.0034) | mass density (x1 = 0.0062) | mass density (x1 = 0.0112) | mass density (x1 = 0.0129) | mass density (x2 = 0.0498) | mass density (x2 = 0.1048) | mass density (x2 = 0.2032) | mass density (x2 = 0.3007) | mass density (x2 = 0.3874) | mass density (x2 = 0.4983)
C[N+](=O)[O-] + CC[NH3+].O=[N+]([O-])[O-] | 1130.9 kg/m3 |  |  |  |  |  |  |  |  |  | 
CC[NH3+].O=[N+]([O-])[O-] + C[N+](=O)[O-] |  | 1132.1 kg/m3 | 1133 kg/m3 | 1133 kg/m3 | 1134.2 kg/m3 | 1209.2 kg/m3 | 1207.3 kg/m3 | 1205.9 kg/m3 | 1203.4 kg/m3 | 1199.2 kg/m3 | 1196.1 kg/m3
